Out of some 50,000 compounds screened, about 800 (1.6%) showed an effect of 50% or more. This is one part of the list.

The target of the assay is Bcl-2-like protein 10 (Homo sapiens) (UniProt Q9HD36). Put plainly: Phenotype converters, Bcl-B/TR3 peptide binding displacement, primary biochemical FP (AID 1240).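 Also: 0% = Bcl-B with tracer peptide and DMSO and 100% = tracer peptide lacking Bcl-B.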 The following applies: GST-Bcl-B / FITC-TR3 peptide fluorescence polarization; stronger effect = higher value; compound at 3.75 mg/L.
Sequence of UniProt Q9HD36 (Q9HD36 whole entry, looked up): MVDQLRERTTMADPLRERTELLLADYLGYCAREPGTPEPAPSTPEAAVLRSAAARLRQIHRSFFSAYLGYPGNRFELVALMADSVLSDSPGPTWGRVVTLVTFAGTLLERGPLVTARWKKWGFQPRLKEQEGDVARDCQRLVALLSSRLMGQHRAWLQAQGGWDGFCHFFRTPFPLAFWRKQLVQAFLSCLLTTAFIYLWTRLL
As to `O=C(NCc1ccccc1)c1ccc(CN2CCN(c3ccccc3)CC2)cc1`, the displacement is -5.8%.

As to `COc1ccc(N2C(=O)c3ccccc3NC2c2ccc(Br)cc2)cc1` (centres undefined), the displacement was 9.6%.

As for `O=C(Cc1ccc(Cl)cc1)NNC(=O)c1cc(Cl)ccc1O`, the displacement is -26.3%.

On to `CCOC(=O)c1ccc(NC(=O)c2ccc[n+]([O-])c2)cc1`, for which the displacement was -10.9%.

Take `O=[N+]([O-])c1cc(C(F)(F)F)ccc1N1CCN(S(=O)(=O)c2ccccc2)CC1`: the displacement worked out at 15%.

With `O=C1/C(=C/c2ccc(-c3ccc(Cl)cc3Cl)o2)SC(=S)N1CC1CCCO1` (centres undefined), the displacement was -13.2%.

As to `CC(C)c1cccc(C(C)C)c1NC(=O)c1ccc(C(=O)C(=O)c2ccccc2)cc1`, the displacement was -5.1%.

`Cc1cccc(C(=O)N2CCN(c3ccccc3)CC2)c1`: the displacement was -5.8%.

Regarding `CCCn1c(=O)c(C(=O)Nc2cc(Cl)ccc2OC)c(O)c2ccccc21`, the displacement amounted to 9%.

As for `Nc1nonc1/C(=N\OC(=O)Nc1ccccc1)N1CCOCC1`, the displacement was -6.6%.

Turning to `O=C(O)CCCCCN1C(=O)C(=O)/C(=C(/O)c2ccccc2)C1c1ccccc1[N+](=O)[O-]` (centres undefined), the displacement is 3%.

For the compound `CCOC(=O)c1ccccc1NC(=O)c1cccc([N+](=O)[O-])c1C`, the displacement amounted to 2.7%.

For `CC(Nc1cc(=O)n(C)c(=O)[nH]1)c1ccccc1` (centres undefined), the displacement was -6.4%.

Turning to `CCN(CC)c1ccc(/C=N/NS(C)(=O)=O)cc1`, the displacement came to 7.3%.

Consider `Cc1cc(C)c2nc3s/c(=C\c4ccc([N+](=O)[O-])cc4)c(=O)n3c2c1`, for which the displacement was -6.3%.

On to `COCCCNS(=O)(=O)c1ccc(OC)cc1`, for which the displacement is -2.7%.

Regarding `O=C1CC(Cc2ccc(Cl)cc2)C(=O)N1C1CCCCC1` (centres undefined), the displacement was -6.7%.

As to `CC(C)(C)c1cc(Br)ccc1OCC(=O)O`, the displacement is -7.2%.

Take `CC(C)CCNC(=O)c1ccccc1C(=O)NCCC(C)C`: the displacement was -4.8%.

Regarding `COc1ccc(C(=O)N2CCN(C(=O)c3cccc(F)c3)CC2)cc1OC`, the displacement worked out at 6.2%.

For the compound `O=C(Nc1c(Cl)cccc1Cl)c1cc2c(ccc3ccccc32)oc1=O`, the displacement is -9.3%.

For the compound `CS(=O)(=O)N(Cc1ccc(C(=O)NCc2ccco2)cc1)c1ccccc1`, the displacement was 7.6%.

As for `COC(=O)C1=C(C)N(c2ccccc2F)C(=O)/C1=C\c1ccc(F)cc1`, the displacement turned out to be 2.3%.

For the compound `CCOC(=O)C(=O)Nc1ccc(N(C)C)cc1`, the displacement is 14%.

Consider `Cc1ccc(NC(=O)/C(=C\c2ccc3c(c2)OCO3)NC(=O)c2ccco2)cc1`, for which the displacement is 3.2%.

Regarding `O=C(Nc1ccc(Cl)c(Cl)c1)Nc1nnc(CSCc2ccccc2F)s1`, the displacement was 0.3%.

Regarding `CCCn1c(=N)n(CC(O)c2ccc(C)cc2)c2ccccc21` (centres undefined), the displacement was -8.9%.

`Cc1ccc(N2C(=O)CC(NC3CCN(Cc4ccccc4)CC3)C2=O)cc1` (centres undefined): the displacement turned out to be 3.9%.

As to `CCn1cc(C(=O)NN)c(=O)c2cc(F)c(N3CCCCCC3)cc21`, the displacement was 31.4%.

For `C=CCN1C(=O)c2ccccc2C1(O)c1ccc(OC)cc1` (centres undefined), the displacement turned out to be 13%.

As for `CC1SC(c2cccc(Cl)c2)NC1=O` (centres undefined), the displacement is -2.3%.

Regarding `O=C1NC(=O)/C(=C/c2ccccc2[N+](=O)[O-])S1`, the displacement stood at 12.2%.

`CCOc1ccccc1C(=O)Nc1cc(S(N)(=O)=O)ccc1C`: the displacement is -3.7%.

For `O=C(NCCCO)C(=O)NCc1ccc(Cl)cc1`, the displacement is 17.3%.

In the case of `Cc1cc(NC(=O)c2cccc(Br)c2)ccc1NC(=O)c1ccccc1`, the displacement was 7.1%.

As for `Cc1ccc(-c2cc(-c3cc(Cl)ccc3O)[nH]n2)cc1`, the displacement is -4.3%.

In the case of `COc1ccc(/C=C2\SC(=S)N(NC(=O)c3ccccc3[N+](=O)[O-])C2=O)cc1OC`, the displacement came to 0.4%.

For the compound `Cc1ccn2c(-c3csc(Nc4cccc(C(=O)O)c4)n3)c(C)nc2c1`, the displacement is -1.1%.

With `COc1ccc(C2/C(=C(\O)c3ccc(C)cc3)C(=O)C(=O)N2CCCC(=O)O)cc1OC` (centres undefined), the displacement was -4.6%.

For `N/C(=N\c1nc(C(F)(F)F)cc(=O)[nH]1)Nc1ccc(Cl)cc1`, the displacement is -6.4%.

Consider `Cc1ccc(S(=O)(=O)Nc2ccc3c(c2)oc2ccccc23)cc1`, for which the displacement is -13.8%.

In the case of `COc1cc(/C=C2/C(=O)NN(c3ccc(C)cc3)C2=O)cc(Br)c1O`, the displacement was -8.4%.

As for `O=[N+]([O-])c1cc(S(=O)(=O)N2CCN(c3ccccc3)CC2)ccc1Cl`, the displacement was found to be 10.8%.

For the compound `COc1ccc(/C=C/C(=O)Nc2sc3c(c2C#N)CC(C)(C)OC3)cc1OC`, the displacement came out at 41.9%.

Turning to `Cc1cc(C)nc(/N=C(/N)Nc2ccc(OCCc3ccccc3)cc2)n1`, the displacement was 10%.

Take `Cn1c(/C=N/Nc2nc3ccccc3[nH]2)nc2ccccc21`: the displacement is -7.4%.

For `O=[N+]([O-])c1cccc(CNC2CCCCC2)c1`, the displacement came to 5.2%.

As for `COC(=O)CSc1nc2sc3c(c2c(=O)n1-c1ccccc1)CC(C)(C)OC3`, the displacement was -8.4%.

With `O=C1CC(N2CCC(Cc3ccccc3)CC2)C(=O)N1c1cc(Cl)cc(Cl)c1` (centres undefined), the displacement was found to be 1%.

On to `N/C(=N\OC(=O)c1ccccc1Br)c1ccc(Cl)cc1`, for which the displacement stood at 5.5%.

For the compound `CCc1ccc(C2Nc3ccccc3NC3=C2C(=O)CC(c2ccccc2)C3)s1` (centres undefined), the displacement was 4.8%.

Turning to `Cc1cccc(N=C2NC(=O)CS2)c1`, the displacement was 7.3%.

As for `O=C1S/C(=C\c2cccc(Cl)c2)C(=O)N1c1ccc(Cl)cc1`, the displacement is -3.8%.

With `CC(=O)N1CCN(c2ccc([N+](=O)[O-])c(NC3CC3)c2)CC1`, the displacement is 7.8%.

Regarding `COc1ccc(/C=N\N2CCN(c3ccccc3)CC2)cc1`, the displacement is -0.3%.

Turning to `CCN1C(=O)/C(=C\c2ccccc2OS(=O)(=O)c2ccccc2[N+](=O)[O-])SC1=S`, the displacement came out at 10.9%.

Regarding `O=C(Nc1ccccc1C(F)(F)F)c1ccc(OC2CSC2)cc1`, the displacement was -7.4%.

As to `COc1cccc(CNCc2ccccc2OC)c1`, the displacement was determined as 7.7%.

As to `O=C(Nc1ccc(NC(=O)c2ccc(-c3cccc(Cl)c3)o2)cc1)c1ccccc1`, the displacement turned out to be 21.4%.

For `COc1cc(C=O)c(Br)cc1OCc1ccc(Cl)cc1Cl`, the displacement stood at 5.6%.

As to `C=CCOc1ccc(/C=C2\C(=O)NC(=O)N(c3ccccc3)C2=O)cc1Br`, the displacement is -16.6%.

With `CC(C)CN1C(=O)/C(=C/c2cn(-c3ccccc3)nc2-c2cccs2)SC1=S`, the displacement turned out to be 34.6%.

For `Cc1ccc(-c2csc(NC(=O)C3C4CCC(C4)C3C(=O)O)n2)cc1` (centres undefined), the displacement is 1.4%.

For `CCOC(=O)c1c(N)sc(C)c1-c1ccc(OCC)cc1`, the displacement is 13.7%.

Take `C=CCNC(=O)c1ccccc1C(=O)c1ccccc1`: the displacement is 0.1%.

For the compound `COc1ccc(/C=N/Nc2cc(N3CCOCC3)ncn2)c(OC)c1`, the displacement was -8.4%.

With `CC(C)OC(=O)c1ccc(NC(=O)c2cncc(Br)c2)cc1`, the displacement turned out to be 12.3%.

With `COc1ccccc1CNC(=O)COc1cc(C)c(Cl)c(C)c1`, the displacement was determined as 0.3%.

For `O=C(/C=C/c1ccc([N+](=O)[O-])cc1)N1CCN(CCN2C(=O)c3cccc4cccc(c34)C2=O)CC1`, the displacement is -16%.

For the compound `Cc1c(Cl)cccc1-n1ncnc1-c1cccc(Cl)c1`, the displacement is -12.7%.

Turning to `C=CCOC(=O)C1=C(C)N=C2SCCC(=O)N2C1c1ccc(OC)cc1` (centres undefined), the displacement came out at 8.3%.

Take `COc1cc(C2CC3CC2C(C)C3(C)C)ccc1O` (centres undefined): the displacement was determined as 12.4%.

On to `COc1cc(/C=C2\C(=O)NC(=O)N(c3ccc(F)cc3)C2=O)ccc1OCC(=O)O`, for which the displacement is -15.1%.

With `CC(NC(c1ccccc1)(c1ccccc1)c1ccccc1)C(=O)O` (centres undefined), the displacement is 6.2%.

Regarding `COc1cccc(C(=O)N2CCN(Cc3ccccn3)CC2)c1`, the displacement is -10.9%.

Regarding `O=C(NCCCn1ccnc1)c1ccc(C(=O)NCCCn2ccnc2)cc1`, the displacement is -8%.

For the compound `COc1c(Br)cc2c(cc(C)n2-c2ccccc2)c1OCC(O)CNC(C)C` (centres undefined), the displacement was found to be 1%.

On to `COc1ccc(N2C(=O)C3C(C2=O)N2C(c4ccco4)C4C(=O)N(c5ccc(OC)cc5)C(=O)C4N2C3c2ccco2)cc1` (centres undefined), for which the displacement is -2.5%.

Consider `ON=C(c1nc2ccccc2[nH]1)c1nc2ccccc2[nH]1`, for which the displacement was -20.8%.

`COc1ccc([N+](=O)[O-])cc1NC(=O)CCc1ccccc1`: the displacement was -2.3%.

`CC(OCc1ccccc1)C(NC(=O)OC(C)(C)C)C(=O)NCCc1c[nH]c2ccccc12` (centres undefined): the displacement was determined as 12.3%.

As to `Cc1n[nH]c(=S)n(/N=C/c2cc(Cl)ccc2Cl)c1=O`, the displacement was found to be 7.4%.

As to `O=C1NC(=S)N(c2ccc(F)cc2)C(=O)/C1=C/c1ccc(-c2cccc(C(=O)O)c2)o1`, the displacement was -66.4%.

For the compound `CCOC(=O)C1=C(c2ccccc2)N=c2s/c(=C\c3ccc[nH]3)c(=O)n2C1c1cc(OC)ccc1OC` (centres undefined), the displacement was -11%.

In the case of `CCn1c2ccccc2c2cc(CNCCc3ccc(OC)c(OC)c3)ccc21`, the displacement turned out to be 16.8%.

For the compound `Cc1ccc2nc(-c3ccc(C)c(NC(=O)c4ccc5ccccc5c4)c3)oc2c1`, the displacement is -11.3%.

For `COc1ccc(C2C(C(C)=O)=C(O)C(=O)N2CC2CCCO2)cc1` (centres undefined), the displacement was -2%.

Take `Cc1ccc(N2C=NNC(=O)C2)cc1C`: the displacement is 10.5%.

Regarding `Cc1cccc(CC2CC(=O)N(c3cccc(Cl)c3C)C2=O)c1` (centres undefined), the displacement was determined as 6.6%.

Turning to `O=C(Oc1ccc(/C=N/NC(=O)C(O)c2ccccc2)cc1)c1cccs1` (centres undefined), the displacement is 5.2%.

For the compound `CCOP(=O)(OCC)C(NC(=O)Nc1ccc(Cl)cc1)C(N)=O` (centres undefined), the displacement amounted to 2.6%.

For the compound `CC1=C(C(=O)Nc2ccc(C)cc2)C(c2cccc3ccccc23)NC(=S)N1` (centres undefined), the displacement was determined as 2.2%.

With `COc1ccc(NC(=O)c2ccccc2Cl)cc1Cl`, the displacement came to 12.4%.

As for `CCc1cc(OCCOCCN(C)CCO)ccc1Cl`, the displacement worked out at 4.8%.

`c1cc2c(cc1C1OCC3(CO1)COC(c1ccc4c(c1)OCO4)OC3)OCO2` (centres undefined): the displacement was 8.2%.

On to `NC(=O)c1ccccc1NS(=O)(=O)c1ccc(F)cc1`, for which the displacement is -6.6%.

As to `Cc1ccc(-c2cc(-c3ccccc3O)nc(NN)n2)cc1`, the displacement is -18.6%.

Regarding `CCOC(=O)/C(C(=O)Nc1cccs1)=C1\NC(C)(C)Cc2ccccc21`, the displacement turned out to be 11.9%.

As to `CCOC(=O)CSCCOc1ccc(C=O)cc1OC`, the displacement is -4.4%.

As for `CCCC(=O)c1ccc(N2CCN(C(=O)OCC)CC2)c(F)c1`, the displacement was -1.7%.

With `CC(=O)c1cccc(NC(=O)/C(=C\c2cccnc2)NC(=O)c2ccc(C)cc2)c1`, the displacement is -7%.

As to `CCOC(=O)/C(C#N)=C/c1ccc(O)cc1`, the displacement was -4.7%.

In the case of `COc1ccc(-c2cc(C(=O)Nc3ccccc3C(F)(F)F)c3ccccc3n2)cc1`, the displacement was -6.1%.

As for `O=C(CC(c1ccccc1)c1ccccc1)NCc1cccnc1`, the displacement came to 0.3%.

For `O=C1C2C(C(=O)N1/N=C/c1ccc(O)cc1)C1C=CC2C12CC2` (centres undefined), the displacement amounted to 3.9%.

Regarding `Cc1cc(/C=C2\C(=O)NC(=S)N(c3cccc(Cl)c3)C2=O)c(C)n1-c1cccnc1`, the displacement stood at 18.3%.

Turning to `COc1ccccc1/C=N/NC(=O)C(=O)N1CCCC1`, the displacement came out at 5.5%.

`CN(C)CC(=O)N1c2ccccc2CCc2ccc(NC(=O)c3ccccc3)cc21`: the displacement is -7.3%.

In the case of `O=C(O)c1ccc(-c2ccc(/C=C3\SC(=S)N(c4cccc(C(F)(F)F)c4)C3=O)o2)cc1`, the displacement was -45.4%.
